Reference: PubChem BioAssay AID1347417 (National Center for Advancing Translational Sciences (NCATS), 2020)
Among all 120,000 compounds or so, about 5,300 (4.4%) were called active. Inconclusive means that the source gave no clear call. Such entries were picked first, then a sample of the others. Calls follow the shape of the dose curve; as a rule, active = well fitted inhibition curve with a large enough effect; inconclusive = small, poorly fitted or top-dose-only effect; inactive = no such curve, though single readings can be large or run the other way. Where the call is inconclusive, the potency comes from a doubtful curve fit.

test: qHTS Primary assay for Inhibitors of Plasmodium falciparum Dd2 growth in vitro; also: nearly all actives have a fitted effect of over 65% in size; conditions: P. falciparum Dd2 growth, SYBR Green, 72 h; series mostly up to 28.9 µM
Method in brief: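 Infected erythrocytes (Dd2, 0.3% parasitemia, 2.5% hematocrit final) are added to compound in RPMI-1640/Albumax II medium, grown 72 h at 37C in low oxygen, then lysed with saponin/Triton-X containing SYBR Green and read by fluorescence.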
Potency is read from the fitted curve at half-maximal effect; tags tell the direction and shape of the fitted curve.

Row | SMILES | Potency
1 | CSc1cccc(NC(=O)c2ccc3c(c2)N(C)C2CCCCCN2C3=O)c1 (centres undefined) | inconclusive: 5.01 µM [inhibitor, partial curve, poor fit]
2 | O=C(C1CC1)N1CCC2(CC1)CCN(CCc1ccccc1)c1ccccc1O2 | inconclusive: 1.58 µM [inhibitor, partial curve, poor fit]
3 | Cc1ccc(Cn2c(-c3ccc(F)cc3)nc(C)c(CCO)c2=O)cc1C | inconclusive: 17.8 µM [inhibitor, single point]
4 | CC(C)CCN1C[C@@H](CO)[C@H](c2nc(-c3cccnc3)no2)C1 | inconclusive: 12.6 µM [inhibitor, partial curve, poor fit]
5 | O=C(Cc1c[nH]c2ccccc12)N1CCC2(CC1)CC(CO)N(C(=O)c1ccccc1)C2 (centres undefined) | inconclusive: 3.98 µM [inhibitor, full curve, poor fit]
6 | CCOC(=O)C1CCCN(C(=O)c2ccc3c(c2)sc2nc(-c4cccc(OC)c4)cn23)C1 (centres undefined) | inconclusive: 14.1 µM [inhibitor, single point]
7 | COCCCn1c(SCc2cccc(Cl)c2)nc2c(sc3ccccc32)c1=O | inconclusive: 10 µM [inhibitor, single point]
8 | O=C(Cc1ccccc1)N1CC2CC(C1)[C@H]1CCCC(=O)N1C2 (some centres undefined) | inactive
9 | COc1cccc(CN2C(=O)OC3(CCN(C(C)=O)CC3)C2(C)c2cccnc2)c1 (centres undefined) | inactive
10 | Cc1cn2nnc(C(=O)NC3CCc4ccccc43)c2c(=O)[nH]1 (centres undefined) | inconclusive: 20 µM [inhibitor, single point]
11 | O=C(Cc1ccccc1)N1CCC2(COc3ccncc3S(=O)(=O)N2)C1 (centres undefined) | inactive
12 | COc1cccc(-c2cc3c(ccn3C)c(C(=O)NCCc3cnc[nH]3)n2)c1OC | inconclusive: 31.6 µM [inhibitor, single point]
13 | COCCNC(=O)c1coc(CN2CCN(C/C=C/c3ccccc3)CC2)n1 | inactive
14 | CCCc1ccc(C(=O)N2C[C@@H](CN(C)C)[C@@H](CO)C2)cc1 | inactive
15 | O=C(Nc1ccc(F)cc1)Nc1csc2c1CCCC2 | active: 10 µM
16 | CCN1C(C(=O)c2ccccc2)=C(OC(=O)COc2ccc(C)cc2)c2ccccc2S1(=O)=O | inconclusive: 15.8 µM [inhibitor, single point]
17 | COc1cccc(-c2ccc(NC(=O)C3CCCN(Cc4cc(C(C)C)n[nH]4)C3)cc2)c1 (centres undefined) | active: 11.2 µM
18 | COc1ccc(N2CCN(CCCNC(=O)C3COc4ccccc4C3)CC2)cc1 (centres undefined) | inconclusive: 17.8 µM [inhibitor, single point]
19 | COc1ccccc1NC1CN(C(=O)OC(C)(C)C)C1 | inactive
20 | Cc1ccccc1-c1cc(-c2c(C)noc2C)cc2c1C(=O)N(C)C2 | inconclusive: 31.6 µM [inhibitor, single point]
21 | c1ccc(CN2CCCC3(CC(c4ccccn4)=NO3)C2)nc1 (centres undefined) | inactive
22 | O=C(NCc1ccccc1)O[C@H]1COCCN(c2nc3ccccc3o2)C1 | inactive

Row | SMILES | Potency
23 | O=C(c1ccc(F)cc1)N1CCc2c([nH]c3ccccc23)C1c1ccc(Cl)cc1 (centres undefined) | inconclusive: 11.2 µM [inhibitor, partial curve, poor fit]
24 | Cc1nc(-c2ccccc2)n(CC(=O)Nc2cccc(C#N)c2)c(=O)c1CCO | inconclusive: 2.82 µM [inhibitor, partial curve, poor fit]
25 | CCNC(=O)N1CCC(N2C(=O)C(OCC3CC3)C23CCCCC3)CC1 (centres undefined) | inactive
26 | CC(C)(C)OC(=O)N1CC(N2CCCCC2)C1 | inactive
27 | COCc1noc(CC2CCOC3(CCN(C(=O)c4c[nH]c5ccccc45)CC3)C2)n1 (centres undefined) | inconclusive: 0.251 µM [inhibitor, full curve]
28 | CC(C)C[C@@H]1N[C@H](C(=O)NCC2CC2)Cc2c[nH]c3cccc1c23 | inconclusive: 2.24 µM [inhibitor, partial curve, poor fit]
29 | COc1ccc(CC(=O)N2CCc3cc(OC)c(OC)cc3C2COc2ccc(F)cc2)cc1 (centres undefined) | inconclusive: 8.91 µM [inhibitor, partial curve]
30 | COc1ccc(-c2cnc3[nH]cc(CC(=O)Nc4ccncc4)c3c2)cc1 | inconclusive: 15.8 µM [inhibitor, single point]
31 | COc1ccc(C(=O)Nc2ccccc2-c2nc3ccccc3s2)cc1OC | inactive
32 | Cc1ccc(C)c(NC(=O)CSc2nccn2-c2cccc(C)c2C)c1 | active: 3.55 µM
33 | CNC(=O)CCn1ncc2cc(OCc3ccccc3-c3ccccc3Cl)ccc21 | inconclusive: 2.82 µM [inhibitor, full curve, poor fit]
34 | CC(Oc1ccccc1)C(=O)N1CCC2(CC1)NC(=O)N(c1ccccc1Cl)N2 (centres undefined) | inconclusive: 7.94 µM [inhibitor, partial curve, poor fit]
35 | CCc1nc(-c2ccc(OC3CCN(CCc4ccccc4)C3)cc2)no1 (centres undefined) | inconclusive: 0.398 µM [inhibitor, full curve]
36 | CCc1ccc(C2C(C(=O)Nc3ccccc3OC)=C(C)Nc3c(C(=O)Nc4ccc(C)cc4)cnn32)cc1 (centres undefined) | active: 11.2 µM
37 | COCCNC(=O)[C@@H]1C[C@H](Oc2ccccc2)CN1C(=O)Cc1cccc(F)c1 | inactive
38 | C=C[C@H]1CN2CC[C@H]1C[C@@H]2CNC(=O)C1CC1 | inactive
39 | Cc1nn(-c2ccccn2)c(C)c1[C@@H]1C=C[C@@H](NC(=O)c2cccs2)C1 | inconclusive: 11.2 µM [inhibitor, partial curve, poor fit]
40 | CN(C)C(=O)N1Cc2ccccc2OC2(CCN(C(=O)c3c[nH]c4ccccc34)CC2)C1 | inconclusive: 12.6 µM [inhibitor, partial curve]
41 | Cc1ccc(OCCSc2nc(-c3ccccc3C)nc3cc(=O)[nH]n23)cc1Cl | inactive
42 | Cc1nn(-c2nc(-c3ccccc3)cc(C(F)(F)F)n2)c(C)c1Cl | inconclusive: 20 µM [inhibitor, single point]
43 | COc1ncccc1CNC[C@H]1Cn2c(-c3ccc(F)cc3)cnc2CO1 | active: 25.1 µM
44 | COc1ccc(CNC[C@H]2Cn3c(-c4ccc(Cl)cc4)cnc3CO2)cn1 | inconclusive: 22.4 µM [inhibitor, single point]
